Reference: PubChem BioAssay AID624418 (National Center for Advancing Translational Sciences (NCATS), 2012)
The whole screen tested about 410,000 compounds, of which about 530 (0.13%) were called active. Inconclusive means that the source gave no clear call. Such entries were picked first, then a sample of the others. Calls follow the shape of the dose curve; as a rule, active = well fitted inhibition curve with a large enough effect; inconclusive = small, poorly fitted or top-dose-only effect, or another doubt; inactive = no such curve, though single readings can be large or run the other way. Potencies beside an inconclusive call are fits to weak or partial responses and may not hold up.
Potency is read from the fitted curve at half-maximal effect.

Assay: qHTS of GLP-1 Receptor Inverse Agonists: Cytotox Screen
Settings: HEK293 cAMP-luciferase reporter cells, luminescence, 24 h; series mostly up to 38.3 µM
Description: The overall goal of this project was to develop a novel assay for discovering small molecule ligands for class B1 G protein-coupled receptors (GPCRs). Very few agonists (or inverse agonists) with generally weak activity for this entire group of physiologically important receptors are known to date. To establish proof-of-principle that this critical bottleneck can be overcome with a suitable screening approach, our studies focused on the class B1 receptor for glucagon-like peptide-1 (GLP-1R), a potential therapeutic target for diabetes and neurodegenerative disease.
The assay was developed using a cell-based functional readout. Toward this goal, stably transfected HEK293 cell clones were established that co-express (i) a cAMP-responsive luciferase reporter gene, and (ii) constitutively active GLP-1R that upon ligand interaction inhibit (inverse agonists) the luciferase activity. In addition, two control cell lines were developed: (i) one that express only the cAMP-responsive reporter gene to enable initial exclusion of GLP-1R independent effects of candidate probes; and (ii) one with the reported gene cloned with another constitutively active orphan receptor GPR119 to enable exclusion of GLP-1R independent inhibitor effects of candidate inverse agonists.
To that end, this assay was optimized for 1536-well format and screened against the MLSMR. Then the same collection was run in this cytotoxicity assay where inhibition was the undesired outcome.
NIH Molecular Libraries Probe Production Network [MLPCN]
NIH Chemical Genomics Center [NCGC]
PI Name: Martin Beinborn, Tufts Medical Center
Six ul of cell suspension (200 cells/uL in DMEM + 10% Nu serum + 1% pen-strep) is dispensed in a white solid 1536-well plate. The plates are incubated for 12 hours at 37 deg C at 5% CO2 followed by addition of 23 nL compounds. After 24 hr incubation at 37 deg C and 5% CO2, 3 uL of luciferase assay detection reagent is added. A luminescence read is obtained on the PerkinElmer Viewlux after 12 min incubation at room temperature.
With Cc1cc(Nc2cccc([N+](=O)[O-])c2)c2ccccc2n1 the Potency was inconclusive: 22.4 µM [inhibitor, single point].
In the case of O=C1NC2C(=CC(O)C(O)C2O)c2cc3c(cc21)OCO3 (centres undefined), the Potency is reported as inconclusive: 1.12 µM [inhibitor, full curve].
In the case of Cc1cc(-c2ccc(C)c(S(=O)(=O)NCC3CCN(Cc4ccc(F)cc4)CC3)c2)on1, the Potency is reported as inconclusive: 28.2 µM [inhibitor, single point].
With Cc1ccc(NC(=O)C(CC(C)C)NS(=O)(=O)c2ccc3c(c2)oc(=O)n3C)c(C)c1 (centres undefined) the Potency was inconclusive: 22.4 µM [inhibitor, single point].
For CC(C)=CCN1CC[C@@]2(C)c3cc(O)ccc3C[C@@H]1C2C (some centres undefined), the Potency was “inactive”.
For CCN(CCNC(=O)C1CCN(Cc2nc(-c3cccc(Cl)c3)oc2C)CC1)c1ccccc1, the Potency was inconclusive: 11.2 µM [inhibitor, partial curve, poor fit].
For CCC(C)n1c(O)c(C=NCCc2ccccc2)c(=O)[nH]c1=S (centres undefined), the Potency was “inactive”.
With COc1cccc(CN2CCCC(C(=O)Nc3ccc(-c4cscn4)cc3)C2)c1 (centres undefined) the Potency was inconclusive: 10 µM [inhibitor, partial curve].
In the case of CC(C)CC(=O)/C(=C\c1ccc(Cl)cc1Cl)n1cncn1, the Potency is reported as inconclusive: 7.94 µM [inhibitor, partial curve, poor fit].
With N#Cc1ccccc1Cn1cc(/C=C/[N+](=O)[O-])c2ccccc21 the Potency was inconclusive: 28.2 µM [inhibitor, single point].
With O=[N+]([O-])c1c(Nc2ccc(O)cc2)cc(Cl)c2nonc12 the Potency was inconclusive: 28.2 µM [inhibitor, single point].
For Cn1ccnc1P(=S)(c1nccn1C)N1CCOCC1, the Potency was “inactive”.
For CCOc1cc(/C=C2\SC(N)=NC2=O)ccc1O, the Potency was inconclusive: 10 µM [inhibitor, partial curve, poor fit].
In the case of CC(CN1CCNCC1)(NS(=O)(=O)c1ccccc1)c1ccccc1 (centres undefined), the Potency is reported as inconclusive: 11.2 µM [inhibitor, partial curve, poor fit].
In the case of CC(C)CC(N)c1csc(NC(=O)c2cc(C(C)(C)C)nn2Cc2ccccc2)n1 (centres undefined), the Potency is reported as inconclusive: 11.2 µM [inhibitor, single point].
For CCOC(=O)C1(CCc2ccccc2)CCN(Cc2csc(C(C)=O)c2)CC1, the Potency was inconclusive: 10 µM [inhibitor, single point].
For Cc1ccc(/C=C/c2onc(C)c2S(=O)(=O)N2CCC(C(=O)N3CCC(N(C)C(C)C)CC3)CC2)cc1, the Potency was inconclusive: 28.2 µM [inhibitor, single point].
With CCCOc1ccccc1NP(=O)(Oc1ccccc1)Oc1ccccc1 the Potency was “inactive”.
With O=C(NNC(=O)C(c1ccccc1)c1ccccc1)c1ccccn1 the Potency was inconclusive: 10 µM [inhibitor, partial curve].
In the case of N=C1c2ccccc2CN1CC(=O)c1ccccc1, the Potency is reported as inconclusive: 28.2 µM [inhibitor, single point].
For C[C@]12CC[C@H]3[C@@H](CC[C@]4(O)C[C@@H](O)CC[C@]34C=O)[C@@]1(O)CC[C@@H]2C1=CC(=O)OC1, the Potency was inconclusive: 0.501 µM [inhibitor, full curve, poor fit].
For COc1ccc(-n2cc(-c3ccccc3)c3c(NCCCN4CCOCC4)ncnc32)cc1, the Potency was inconclusive: 28.2 µM [inhibitor, single point].
With C[C@H]1C[C@@H](C)C(=O)[C@@H]([C@H](O)CC2CC(=O)NC(=O)C2)C1 the Potency was inconclusive: 0.708 µM [inhibitor, full curve].
With CC/C(=N\Nc1ccccc1)c1c(O)[nH]c(=O)[nH]c1=O the Potency was inconclusive: 2.82 µM [inhibitor, full curve, poor fit].
With CC1=CC(=C2C(=O)NC(=S)NC2=O)C=C(C(F)(F)F)N1C the Potency was inconclusive: 14.1 µM [inhibitor, single point].
For CCOC(=O)c1[nH]c2ccc(OC)cc2c1NC(=S)N1CCN(c2cccc(C)c2C)CC1, the Potency was inconclusive: 10 µM [inhibitor, partial curve, poor fit].
For O=[N+]([O-])c1oc2ccc3ccccc3c2c1CCO, the Potency was inconclusive: 10 µM [inhibitor, partial curve, poor fit].
In the case of Cc1c(C(=O)Nc2ccc(-c3nnc4n3CCCCC4)cc2)oc2c1ccc1ccccc12, the Potency is reported as inconclusive: 14.1 µM [inhibitor, single point].
For COc1cc(/C=C2/CC/C(=C/c3ccc(O)c(OC)c3)C2=O)ccc1O, the Potency was inconclusive: 11.2 µM [inhibitor, partial curve, poor fit].
For CCN(CC)CCCNC(=O)c1c(O)c2ccccc2n(Cc2ccccc2)c1=O, the Potency was inconclusive: 14.1 µM [inhibitor, single point].
With Cc1ccc2nc(-c3ccccc3)cc(C(=O)N3CCN(c4ccccc4O)CC3)c2c1 the Potency was inconclusive: 28.2 µM [inhibitor, single point].
For COc1cc(C(=O)N/N=C/c2ccc(OC(=O)c3ccccc3Cl)c(OC)c2)ccc1O, the Potency was inconclusive: 28.2 µM [inhibitor, single point].
In the case of O=C1NC(=O)C(CCc2ccncc2)(CCc2ccncc2)C(=O)N1Cc1ccc(F)cc1, the Potency is reported as inconclusive: 28.2 µM [inhibitor, single point].
In the case of CN(C)CCN(C(=O)COc1ccc(Cl)cc1)c1nc2cc3c(cc2s1)OCO3, the Potency is reported as “inactive”.
With CC(C)OC(=O)c1ccc(NCc2cc(O)ccc2O)cc1Cl the Potency was inconclusive: 8.91 µM [inhibitor, partial curve, poor fit].
In the case of O=C(CCl)N(c1ccccc1)C1CCS(=O)(=O)C1 (centres undefined), the Potency is reported as inconclusive: 10 µM [inhibitor, partial curve, poor fit].
With O=C(Nc1ccccc1)Oc1ccccc1N1CCOCC1 the Potency was inconclusive: 28.2 µM [inhibitor, single point].
For Cc1ccccc1NC(=O)c1ccc(Nc2c([N+](=O)[O-])cc([N+](=O)[O-])c3ccccc23)cc1, the Potency was inconclusive: 10 µM [inhibitor, partial curve, poor fit].
For CCC(=NC1CC1)c1c(O)n(C2CCCCC2)c(=O)[nH]c1=O, the Potency was inconclusive: 28.2 µM [inhibitor, single point].
With CS(=O)(=O)c1sc(C#N)c2c1C(=O)CC(c1ccccc1)C2 (centres undefined) the Potency was active: 11.2 µM.
With CNC[C@H](CC1CCCCC1)NC[C@H](NCCC1CCCC1)[C@H](C)O the Potency was inconclusive: 28.2 µM [inhibitor, partial curve, poor fit].
In the case of CC(Cc1ccccc1)NCC(=O)Nc1cc(N(C)C)nc2ccccc12 (centres undefined), the Potency is reported as inconclusive: 10 µM [inhibitor, single point].
With Oc1ccc(N=Nc2nc(-c3ccccc3)c(-c3ccccc3)[nH]2)cc1 the Potency was active: 10 µM.
With O=[N+]([O-])c1ccc(N2CCCC2)cc1N/N=C1\CN2CCC1CC2 the Potency was inconclusive: 11.2 µM [inhibitor, partial curve, poor fit].
For O=[N+]([O-])c1ccc(Sc2nc3ccccc3o2)c([N+](=O)[O-])c1, the Potency was inconclusive: 11.2 µM [inhibitor, partial curve, poor fit].
For O=[N+]([O-])c1ccccc1-c1cc(-c2ccccc2)cc(-c2ccccc2)[n+]1Cc1ccccc1Cl, the Potency was inconclusive: 5.62 µM [inhibitor, partial curve, poor fit].
For O=C(Nc1cc(Sc2ccccn2)cc([N+](=O)[O-])c1)c1ccc([N+](=O)[O-])cc1, the Potency was inconclusive: 31.6 µM [inhibitor, single point].
With Cn1c(SSc2ccc(-c3cccnc3)n2C)ccc1-c1cccnc1 the Potency was inconclusive: 12.6 µM [inhibitor, partial curve, poor fit].
For CCCCCCn1c(COc2ccccc2F)nnc1SCC(=O)N1c2ccccc2NC(=O)C1(C)C, the Potency was inconclusive: 28.2 µM [inhibitor, partial curve, poor fit].
With O=C1CSC(=S)N1/N=C/c1ccc(O)c([N+](=O)[O-])c1 the Potency was inconclusive: 11.2 µM [inhibitor, single point].
With CCC1CSC(=Nc2ccc(C)cc2)N1C(=O)CN1C(=O)NC2(CCCC2)C1=O (centres undefined) the Potency was inconclusive: 10 µM [inhibitor, partial curve, poor fit].
With CC1CCC(NC(=O)Cn2c(=O)oc3ccccc32)CC1 (centres undefined) the Potency was inconclusive: 12.6 µM [inhibitor, single point].
For O=C(c1cccc2ccccc12)C1CCCN(C2CCC2)C1 (centres undefined), the Potency was inconclusive: 11.2 µM [inhibitor, partial curve, poor fit].
In the case of CCOC(=O)/C(=N\Nc1ccc(Cl)cc1)c1csc(Nc2ccccc2)n1, the Potency is reported as inconclusive: 10 µM [inhibitor, partial curve].
For Cc1cccc(NP(=O)(Oc2ccccc2F)Oc2ccccc2F)c1, the Potency was inconclusive: 12.6 µM [inhibitor, single point].
With COc1ccc(C[C@H]2CN3C(=NC[C@@H]3C(C)C)N2C[C@H](C)NC(=O)c2ccc(C)c(Br)c2)cc1 the Potency was inconclusive: 12.6 µM [inhibitor, partial curve, poor fit].
With c1ccc(-c2cc(-c3ccccc3)[n+](-c3ccccc3)c(-c3ccccc3)c2)cc1 the Potency was inconclusive: 8.91 µM [inhibitor, partial curve, poor fit].
In the case of CC(=O)Nc1ccc(Oc2sc(C(=O)c3ccccc3)c(N)c2C#N)cc1, the Potency is reported as inconclusive: 10 µM [inhibitor, partial curve, poor fit].
With CC(C)N(C(=O)CCl)c1ccccc1 the Potency was “inactive”.
